The list shows a part of the results.
Assays:
Assay in all cases: glycan array binding signal (z-score within array); higher = stronger binding
Settings in all cases: glycan notation: IUPAC condensed, linker removed; mutation: N288D, K313I
[1] = biological target: Fuc(a1-2)Gal(b1-4)GlcNAc(b1-3)Gal(b1-4)GlcNAc(b1-2)Man(a1-3)[Fuc(a1-2)Gal(b1-4)GlcNAc(b1-3)Gal(b1-4)GlcNAc(b1-2)Man(a1-6)]Man(b1-4)GlcNAc(b1-4)GlcNAc
How it was run: (§1)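 Columns mapping to the same glycan were averaged after glycan names were converted to IUPAC-condensed notation. The data come from 3228 arrays in the Consortium for Functional Glycomics database, limited to those with an available protein sequence. Binding is reported as a within-array Z-score averaged across arrays of one protein sequence and across linkers.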

[2] = biological target: Fuc(a1-2)Gal(b1-4)GlcNAc(b1-3)Gal(b1-4)GlcNAc(b1-3)Gal(b1-4)GlcNAc
How it was run: as §1

[3] = biological target: Fuc(a1-2)Gal(b1-4)GlcNAc(b1-3)GalNAc
How it was run: as §1

[4] = biological target: Fuc(a1-2)Gal(b1-4)GlcNAc(b1-3)[Fuc(a1-2)Gal(b1-4)GlcNAc(b1-6)]GalNAc
How it was run: as §1

[5] = biological target: Fuc(a1-2)Gal(b1-4)GlcNAc(b1-3)[Fuc(a1-3)[Gal(b1-4)]GlcNAc(b1-6)]Gal(b1-4)Glc
How it was run: as §1

[6] = biological target: Fuc(a1-2)Gal(b1-4)GlcNAc(b1-6)GalNAc
How it was run: as §1

[7] = biological target: Fuc(a1-2)Gal(b1-4)GlcNAc6S
How it was run: as §1

[8] = biological target: Fuc(a1-2)Gal(b1-4)[Fuc(a1-3)]GlcNAc
How it was run: as §1

[9] = biological target: Fuc(a1-2)Gal(b1-4)[Fuc(a1-3)]GlcNAc(b1-2)Man(a1-3)[Fuc(a1-2)Gal(b1-4)[Fuc(a1-3)]GlcNAc(b1-2)Man(a1-6)]Man(b1-4)GlcNAc(b1-4)[Fuc(a1-6)]GlcNAc
How it was run: as §1

[10] = biological target: Fuc(a1-2)Gal(b1-4)[Fuc(a1-3)]GlcNAc(b1-2)[Fuc(a1-2)Gal(b1-4)[Fuc(a1-3)]GlcNAc(b1-4)]Man(a1-3)[Fuc(a1-2)Gal(b1-4)[Fuc(a1-3)]GlcNAc(b1-2)Man(a1-6)]Man(b1-4)GlcNAc(b1-4)GlcNAc
How it was run: as §1

[11] = biological target: Fuc(a1-2)Gal(b1-4)[Fuc(a1-3)]GlcNAc(b1-3)Gal(b1-4)[Fuc(a1-3)]GlcNAc
How it was run: as §1

[12] = biological target: Fuc(a1-2)Gal(b1-4)[Fuc(a1-3)]GlcNAc(b1-3)Gal(b1-4)[Fuc(a1-3)]GlcNAc(b1-3)Gal(b1-4)[Fuc(a1-3)]GlcNAc
How it was run: as §1

[13] = biological target: Fuc(a1-2)Gal(b1-4)[Fuc(a1-3)]GlcNAc(b1-3)GalNAc
How it was run: as §1

[14] = biological target: Fuc(a1-2)Gal(b1-4)[Fuc(a1-3)]GlcNAc(b1-3)[Neu5Ac(a2-6)Gal(b1-4)GlcNAc(b1-6)]Gal(b1-4)Glc
How it was run: as §1

[15] = biological target: Fuc(a1-2)Gal3S(b1-4)GlcNAc
How it was run: as §1

[16] = biological target: Fuc(a1-2)Gal6S(b1-3)GlcNAc
How it was run: as §1

[17] = biological target: Fuc(a1-2)Gal6S(b1-3)GlcNAc6S
How it was run: as §1

[18] = biological target: Fuc(a1-2)Gal6S(b1-4)Glc
How it was run: as §1

[19] = biological target: Fuc(a1-2)Gal6S(b1-4)Glc6S
How it was run: as §1

[20] = biological target: Fuc(a1-2)[Gal(a1-3)]Gal
How it was run: as §1

[21] = biological target: Fuc(a1-2)[Gal(a1-3)]Gal(b1-3)GalNAc
How it was run: as §1

[22] = biological target: Fuc(a1-2)[Gal(a1-3)]Gal(b1-3)GalNAc(b1-3)Gal(a1-4)Gal(b1-4)Glc
How it was run: as §1

[23] = biological target: Fuc(a1-2)[Gal(a1-3)]Gal(b1-3)GlcNAc
How it was run: as §1

[24] = biological target: Fuc(a1-2)[Gal(a1-3)]Gal(b1-3)GlcNAc(b1-2)Man(a1-3)[Fuc(a1-2)[Gal(a1-3)]Gal(b1-3)GlcNAc(b1-2)Man(a1-6)]Man(b1-4)GlcNAc(b1-4)GlcNAc
How it was run: as §1

[25] = biological target: Fuc(a1-2)[Gal(a1-3)]Gal(b1-3)GlcNAc(b1-2)Man(a1-3)[Fuc(a1-2)[Gal(a1-3)]Gal(b1-3)GlcNAc(b1-2)Man(a1-6)]Man(b1-4)GlcNAc(b1-4)[Fuc(a1-6)]GlcNAc
How it was run: as §1

[26] = biological target: Fuc(a1-2)[Gal(a1-3)]Gal(b1-3)GlcNAc(b1-3)GalNAc
How it was run: as §1

[27] = biological target: Fuc(a1-2)[Gal(a1-3)]Gal(b1-3)GlcNAc(b1-6)GalNAc
How it was run: as §1

[28] = biological target: Fuc(a1-2)[Gal(a1-3)]Gal(b1-4)Glc
How it was run: as §1

[29] = biological target: Fuc(a1-2)[Gal(a1-3)]Gal(b1-4)GlcNAc
How it was run: as §1

[30] = biological target: Fuc(a1-2)[Gal(a1-3)]Gal(b1-4)GlcNAc(b1-2)Man
How it was run: as §1

B1: Langerin (Homo sapiens), Q9UJ71 (protein)
chain: STLNAQIPELKSDLEKASALNTKIRALQGSLENMSKLLKRQNDILQVVSQGWKYFKGNFYYFSLIPKTWYSAEQFCVSRNSHLTSVTSESEQEFLYKTAGGLIYWIGLTKAGMEGDWSWVDDTPFNKVQSARFWIPGEPNDAGNNEHCGNIKAPSLQAWNDAPCDITFLFICKRPYVPSEP
glycan array binding signal (z-score) [1]: -0.021 | glycan array binding signal (z-score) [2]: -0.248 | glycan array binding signal (z-score) [3]: -0.095 | glycan array binding signal (z-score) [4]: -0.036 | glycan array binding signal (z-score) [5]: -0.34 | glycan array binding signal (z-score) [6]: -0.118 | glycan array binding signal (z-score) [7]: -0.187 | glycan array binding signal (z-score) [8]: -0.29 | glycan array binding signal (z-score) [9]: -0.029 | glycan array binding signal (z-score) [10]: -0.047 | glycan array binding signal (z-score) [11]: -0.085 | glycan array binding signal (z-score) [12]: -0.034 | glycan array binding signal (z-score) [13]: 0.324 | glycan array binding signal (z-score) [14]: -0.271 | glycan array binding signal (z-score) [15]: -0.194 | glycan array binding signal (z-score) [16]: -0.321 | glycan array binding signal (z-score) [17]: 0.09 | glycan array binding signal (z-score) [18]: 0.114 | glycan array binding signal (z-score) [19]: -0.227 | glycan array binding signal (z-score) [20]: 1.32 | glycan array binding signal (z-score) [21]: -0.256 | glycan array binding signal (z-score) [22]: -0.347 | glycan array binding signal (z-score) [23]: -0.252 | glycan array binding signal (z-score) [24]: -0.237 | glycan array binding signal (z-score) [25]: 0.837 | glycan array binding signal (z-score) [26]: -0.166 | glycan array binding signal (z-score) [27]: -0.26 | glycan array binding signal (z-score) [28]: -0.194 | glycan array binding signal (z-score) [29]: -0.31 | glycan array binding signal (z-score) [30]: -0.289

— the supplement of paper PMC8728848
